Screen size: about 94,000 compounds; about 4,000 (4.3%) were called active. The shares of active, inactive and inconclusive entries below differ from those in the screen. Calls come from the whole dose curve; as a rule, active = well fitted inhibition curve with a large enough effect; inconclusive = small, poorly fitted or top-dose-only effect; inactive = no such curve, though single readings can be large or run the other way. A potency beside an inconclusive call is a rough fit, not a confirmed value.
Assay: Cytotoxic Profiling in NIH 3T3 Cell Line of Diverse Libraries Using Quantitative High-Throughput Screening; note: nearly all actives have a fitted effect of over 55% in size
Conditions: NIH 3T3 viability, CellTiter-Glo ATP luminescence, 48-72 h; series mostly up to 96.7 µM
Procedure, shortened: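 Viability of NIH 3T3 cells after 48 or 72 hr compound treatment at 37 °C was assessed by CellTiter-Glo, with luminescence imaged following a 10 min room-temperature step.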
In the case of `COc1ccc(Nc2ccnc(N3CCC(NC(=O)C(C)(C)C)CC3)n2)cc1`, the Potency is reported as inconclusive: 50.1 µM [inhibitor, partial curve, poor fit]. With `O=C(NCc1ccc(C(F)(F)F)cc1)c1ccc2nnc(C3CCOCC3)n2c1` the Potency was “inactive”. In the case of `COc1ccc2nc3n(c2c1)[C@@H](CNCc1ccc2c(c1)OCO2)COC3`, the Potency is reported as inconclusive: 20 µM [inhibitor, partial curve, poor fit]. With `COCCn1cc2c3c(cccc31)CN(C(=O)c1cccc(C(F)(F)F)c1)CC2` the Potency was active: 31.6 µM. For `Cc1nn(-c2ccccc2)c2c1C(C1CC1)N(C1CN(C(=O)C3CC3)C1)C2=O` (stereo not given), the Potency was inconclusive: 50.1 µM [inhibitor, partial curve, poor fit]. In the case of `COCCNC(=O)c1nc(-c2ccccc2)c2ccccn12`, the Potency is reported as inconclusive: 89.1 µM [inhibitor, partial curve, poor fit]. For `CN1c2cc(C(=O)NCCc3ccccc3)ccc2C(=O)N2CCCCC21` (stereo not given), the Potency was “inactive”. In the case of `CC1(C)[C@H]2CC[C@@H](CNC(=O)Cc3cccc(Cl)c3)[C@@H]1C2`, the Potency is reported as inconclusive: 89.1 µM [inhibitor, partial curve, poor fit]. In the case of `CC1=C[C@@H](CN(C)C)[C@H](C(C)C)C[C@H]1Cc1nc2c(C)cccc2[nH]1`, the Potency is reported as active: 89.1 µM. In the case of `CCOc1ccc(C(=O)N2CCC(Cc3nc(-c4cnccn4)no3)CC2)cc1OCC`, the Potency is reported as inconclusive: 70.8 µM [inhibitor, single point]. With `O=C(NCc1cccnc1)c1nc(-c2ccccc2)cc2[nH]ccc12` the Potency was inconclusive: 56.2 µM [inhibitor, partial curve, poor fit]. In the case of `CCc1ccccc1-n1nc(-c2c(C)nc3scc(CC(=O)NCc4ccco4)n3c2=O)cc1C`, the Potency is reported as inconclusive: 70.8 µM [inhibitor, partial curve, poor fit]. For `O=C(NCc1ccncc1)C1CN(S(=O)(=O)c2ccc(F)cc2)CC12CCOCC2` (stereo not given), the Potency was “inactive”. In the case of `CC(C)NC(=O)N1CC(Oc2ccc(-c3noc(-c4cccnc4)n3)cc2)C1`, the Potency is reported as inconclusive: 31.6 µM [inhibitor, partial curve]. In the case of `COc1ccc(-c2noc([C@@H]3CCCN3C(=O)Cc3ccccc3Cl)n2)cc1`, the Potency is reported as inconclusive: 50.1 µM [inhibitor, partial curve, poor fit]. In the case of `O=C(NCc1ccccc1Cl)C1CN(C2CCCC2)C(=O)N1` (stereo not given), the Potency is reported as inconclusive: 112 µM [inhibitor, partial curve, poor fit]. With `O=C(Cc1c[nH]c2ncc(-c3ccccc3)cc12)NCCN1CCOCC1` the Potency was inconclusive: 50.1 µM [inhibitor, partial curve, poor fit]. For `Cc1cnc(-c2ccccc2)n1CCNC(=O)C1CCCCC1`, the Potency was “inactive”. With `CC(C)Cc1cn(CC2CCCN(C(=O)c3n[nH]c4c3CCCC4)C2)nn1` (stereo not given) the Potency was inconclusive: 7.94 µM [inhibitor, full curve]. For `Cc1ccccc1Cn1cc(-c2ccncc2)cc1C(=O)N1CCN(C2CCCCC2)CC1`, the Potency was inconclusive: 35.5 µM [inhibitor, partial curve, poor fit]. In the case of `O=C1COc2ccc(-c3ccncc3)nc2CN1Cc1ccccc1`, the Potency is reported as inconclusive: 79.4 µM [inhibitor, partial curve]. For `Cc1cc(-c2cc(-c3cccs3)nc3c(C)noc23)ccn1`, the Potency was inconclusive: 44.7 µM [inhibitor, partial curve, poor fit]. For `Cc1ccc(C2Cn3nnc(C(=O)N4CCC(C(=O)Nc5ccc(Cl)cc5)CC4)c3CO2)cc1` (stereo not given), the Potency was inconclusive: 44.7 µM [inhibitor, partial curve, poor fit]. With `O=C(Nc1ccc2c(c1)OCCO2)N1CCCC1c1nc(CCOCC2CCCC2)no1` (stereo not given) the Potency was “inactive”. In the case of `Cc1oc2c(c1C(=O)NCCCN1CCCC1=O)CN(Cc1cccc(F)c1)CC2`, the Potency is reported as “inactive”. In the case of `Cc1c(F)cccc1NC(=O)N1CCC(OC2CCN(Cc3ccccc3)CC2)CC1`, the Potency is reported as inconclusive: 39.8 µM [inhibitor, partial curve]. In the case of `COc1ccc(-c2cc(N3CCCC(NC(=O)c4ccc(C)s4)C3)n[nH]2)cc1` (stereo not given), the Potency is reported as inconclusive: 44.7 µM [inhibitor, partial curve, poor fit]. With `COc1ccc(NC(=O)N2CC(c3nnc(-c4ccncc4)o3)C3(CCOCC3)C2)c(C)c1` (stereo not given) the Potency was “inactive”. In the case of `O=C(NCc1cccc(Cl)c1)c1nc2sccn2c1-c1ccncc1`, the Potency is reported as inconclusive: 39.8 µM [inhibitor, partial curve]. With `COc1cccc(-c2ccc(C(=O)N3CCC(NC(=O)c4ccccc4Cl)CC3)cc2)c1` the Potency was inconclusive: 44.7 µM [inhibitor, partial curve, poor fit]. For `COCCOC1CN(C2CCN(S(=O)(=O)c3cccc(F)c3)CC2)C12CCCCC2` (stereo not given), the Potency was inconclusive: 56.2 µM [inhibitor, partial curve, poor fit]. With `Cc1ccc(NC(=O)C2CCCN(c3cn[nH]c(=O)c3)C2)cc1C` (stereo not given) the Potency was “inactive”. In the case of `O=C1CC(C(=O)N2CCc3nc(-c4ccccc4)[nH]c3C2)C2(CCCCC2)O1` (stereo not given), the Potency is reported as “inactive”. In the case of `COc1cccc(NC(=O)C2(C)CCc3cnc(NCc4ccccc4)nc32)c1` (stereo not given), the Potency is reported as inconclusive: 35.5 µM [inhibitor, partial curve, poor fit]. With `O=C(COc1ccc(F)cc1)N1CCC(Oc2ccc(-c3noc(C4CC4)n3)cc2)C1` (stereo not given) the Potency was inconclusive: 50.1 µM [inhibitor, partial curve, poor fit]. With `O=C(c1ccccc1Cl)N1CC2(Cc3ccccc3NC2=O)C1` the Potency was “inactive”. In the case of `O=C(c1ccccc1F)N1CCCC(C(=O)N2CCC(c3ccccc3)CC2)C1` (stereo not given), the Potency is reported as inconclusive: 44.7 µM [inhibitor, partial curve, poor fit]. In the case of `CC1(C)[C@H](Cc2cc(COc3ccccc3)on2)C[C@@H]1NC(=O)C1CCC1`, the Potency is reported as inconclusive: 100 µM [inhibitor, partial curve, poor fit]. In the case of `CC(C)(C)c1ccc(C(=O)Nc2ccc([C@H]3OCC(=O)N[C@@H]3CO)cc2)cc1`, the Potency is reported as active: 89.1 µM. With `O=C(c1ccc2cc[nH]c2c1)N1CCC2(CC1)N=C(c1cccc(Br)c1)NO2` the Potency was inconclusive: 50.1 µM [inhibitor, partial curve, poor fit].

Reference: PubChem BioAssay AID1345082 (National Center for Advancing Translational Sciences (NCATS), 2018)
Potency is the fitted concentration of half-maximal effect; tags give direction and shape of the fitted curve.
